Measurements: PubChem BioAssay AID1434 (Sanford-Burnham Center for Chemical Genomics, 2008)
Some of the results follow. These are further read-outs of the screen, such as a control signal, another cell line or another target. No call is given for them. Compounds called inactive in the main read-out are mostly missing here.

molecular target: Runt-related transcription factor 1 (Homo sapiens) + Core-binding factor subunit beta (Homo sapiens) (UniProt Q01196+Q13951); assay: disruptors of Runt domain/CBFb-SMMHC interaction – biochemical, FRET, Cerulean-Runt, Venus-CBFb-SMMHC, uHTS, primary screen (AID 1434); details: Cerulean-Runt/Venus-CBFb-SMMHC FRET ratio 530/480, 1 h; retest duplicate average; at 20 µM; stronger effect = higher value;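 note: 0% = DMSO wells and 100% = wells with excess untagged CBFb-SMMHC; inhibitors lower the FRET ratio by blocking Runt binding to CBFb-SMMHC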
Sequence of UniProt Q01196 (Q01196 whole entry, looked up, the tested form may be a part): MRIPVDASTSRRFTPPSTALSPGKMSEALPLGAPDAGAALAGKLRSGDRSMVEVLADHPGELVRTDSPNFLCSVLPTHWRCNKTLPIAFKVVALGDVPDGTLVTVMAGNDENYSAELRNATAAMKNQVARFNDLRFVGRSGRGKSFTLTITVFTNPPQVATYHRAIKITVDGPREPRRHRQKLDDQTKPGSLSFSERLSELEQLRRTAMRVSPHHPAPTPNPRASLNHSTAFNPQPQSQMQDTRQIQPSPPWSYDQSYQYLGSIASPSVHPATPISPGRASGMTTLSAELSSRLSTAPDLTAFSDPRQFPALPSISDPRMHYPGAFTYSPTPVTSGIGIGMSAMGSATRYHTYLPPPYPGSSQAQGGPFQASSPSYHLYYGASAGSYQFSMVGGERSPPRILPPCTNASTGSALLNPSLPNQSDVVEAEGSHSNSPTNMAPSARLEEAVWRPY
Sequence of UniProt Q01196 (Q13951 whole entry, looked up, the tested form may be a part): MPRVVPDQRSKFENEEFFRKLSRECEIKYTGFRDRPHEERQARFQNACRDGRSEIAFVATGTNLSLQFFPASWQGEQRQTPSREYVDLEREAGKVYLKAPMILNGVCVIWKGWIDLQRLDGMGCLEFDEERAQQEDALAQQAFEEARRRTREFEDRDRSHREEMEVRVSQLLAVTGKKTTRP

| Structure (SMILES) | inhibition |
| --- | --- |
| CN1CCN(C2=CC3=CC(=C(C#N)C#N)CCC3CC2)CC1 (stereo not given) | 70.6% |
| Cc1cc(C)c2nc(N3CCCN(C(=O)c4ccco4)CC3)c(C#N)cc2c1 | 69% |
| N#Cc1c(N)n(C2CCCCC2)c2nc3ccccc3nc12 | 86.8% |
| CC(C)Cn1c(N)c(C(=O)NCCN2CCOCC2)c2nc3ccccc3nc21 | 106% |
| Clc1ccc(N2N=C(c3cccs3)CC2c2ccco2)cc1 (stereo not given) | 68.2% |
| O=c1[nH]c(=O)c2nc(-c3ccc(Cl)cc3)cnc2[nH]1 | 70.6% |
| O=C(O)c1ccc(N/N=C/c2ccc(-c3cc(Cl)ccc3Cl)o2)cc1 | 70.6% |
| COC(=O)Cc1c(C)c2ccc(O)c(CN3CCCC(C)C3)c2oc1=O (stereo not given) | 174% |
| CCn1nc(NC(=O)Cc2ccc(OC)cc2)c2cc3cccc(C)c3nc21 | 94.9% |
| CCN1C(=O)c2cccc3c(S(=O)(=O)NCc4cccnc4)ccc1c23 | 64% |
| CC(=O)N(C)/C=C1\Sc2ccccc2C1=O | 54.4% |
| Cc1nc2nc(-c3ccc(Cl)cc3)cn2nc1C | 72.9% |
| CC1(C)CC(=O)C2=C(C1)Nc1ccccc1NC2 | 70.2% |
| Cc1ccc2nc3c(cc(C#N)c(=O)n3CC3CCCO3)c(=O)n2c1 (stereo not given) | 72.9% |
| CCCc1cc(NCCCCO)n2c(nc3ccccc32)c1C#N | 55.6% |
| OCCNc1c2ccccc2nc2ccccc12 | 154% |
| CCN(CC)c1ccc(/C=N/NC(=O)c2ccc3nc[nH]c3c2)c(O)c1 | 67% |
| COC(=O)C1=CN(C2CC2)C=C(C(=O)OC)C1c1ccc(C(=O)OC)cc1 | 142% |
| O=C(NNC(=O)C1[C@H]2CCCC[C@@H]12)c1ccc(=O)oc1 (stereo not given in full) | 104% |
| O=c1c2ccccc2n(CC(O)CN2CCCCC2)c2ccccc12 (stereo not given) | 70.6% |
| Cc1cccn2c(=O)c3cc(C(N)=S)c(=N)n(CCCOC(C)C)c3nc12 | 72.9% |
| CCNc1ccc2c(Cl)cc(=O)oc2c1 | 116% |
| CC(=O)N=c1c(C#N)cc2c(=O)n3ccccc3nc2n1Cc1ccccc1 | 150% |
| CCN1CCc2c(C#N)c(N3CCOCC3)nc(NCCO)c2C1 | 72.9% |

| Structure (SMILES) | inhibition |
| --- | --- |
| CCc1c(C)c(C#N)c2nc3ccccc3n2c1NCC1CCCO1 (stereo not given) | 66.7% |
| O=c1oc2c(CN3CCOCC3)c(O)ccc2c2c1CCCC2 | 85.4% |
| CCN(CC)c1ccc(/C=C(\C#N)C(N)=O)cc1 | 67.2% |
| Cc1ccc(C2NC(=O)c3c(sc4c3CCN(C)C4)N2)s1 (stereo not given) | 147% |
| CCc1nc(SCC(=O)c2ccc3c(c2)OCCO3)c2ccccc2n1 | 68.5% |
| COCCn1c(CCC(=O)O)ccc1-c1cccs1 | 76.3% |
| CN(C)Cc1c(O)ccc2c3c(c(=O)oc12)CCCCC3 | 139% |
| CC1=CC(c2ccccc2)n2nc(NS(=O)(=O)c3ccc(C)cc3)nc2N1 (stereo not given) | 86.7% |
| c1ccc(-c2ccc(-c3nccc4ccccc34)[nH]2)cc1 | 108% |
| CCOC(=O)c1c(NC(=O)CSc2nnc(C)s2)sc2c1CCN(C)C2 | 164% |
| Cc1ccc2nc(NCCCN3CCOCC3)c(C=NCCCN3CCOCC3)c(=O)n2c1 | 114% |
| CCOC(=O)CNS(=O)(=O)c1ccc2c3c(cccc13)C(=O)N2CC | 63.7% |
| CCCCCCc1cc2cc(C(=O)OCC)c(=O)oc2cc1O | 70.6% |
| Cc1ccc(C2C3=C(CCCC3=O)Nc3[nH]c(=S)[nH]c(=O)c32)cc1 (stereo not given) | 54.3% |
| COc1ccc(CCNc2c3ccccc3nc3ccccc23)cc1OC | 161% |
| Nc1ccc2[nH]ncc2c1 | 58.2% |
| Nc1c(C(=O)NCCN2CCOCC2)c2nc3ccccc3nc2n1-c1ccccc1 | 114% |
| COc1cc([C@@H]2[C@H]3CN(C)CC=C3C(C#N)=C(N)C2(C#N)C#N)cc2c1OCO2 | 76.9% |
| COc1ccc2nc(Nc3sc4c(c3C(N)=O)CCCC4)sc2c1 | 76.9% |
| CCCCCOC(=O)c1c(N)n(CCOC)c2nc3ccccc3nc12 | 111% |
| COc1ccc2o/c(=N\O)c(C(=O)Nc3ccc(C)cc3)cc2c1 | 72.1% |
| N=c1c(C(=O)NCc2ccccc2)cc2c(=O)n3ccccc3nc2n1Cc1ccco1 | 72.9% |
| COc1cccc(C2C(C#N)=C(N)Oc3cc(N)ccc32)c1OC (stereo not given) | 111% |
| COc1cc2cc(C(=O)N3CCN(Cc4ccc5c(c4)OCO5)CC3)c(=O)oc2cc1OC | 62.4% |

| Structure (SMILES) | inhibition |
| --- | --- |
| COCCNC(=O)/C(C#N)=C/c1c(N2CC(C)OC(C)C2)nc2ccccn2c1=O (stereo not given) | 71.5% |
| COc1ccc2cc(-c3cc(C(=O)OCC(=O)NC4CCS(=O)(=O)C4)c4ccccc4n3)ccc2c1 (stereo not given) | 71.5% |
| CCOc1ccc(C2C(C(=O)OC)=CN(CCOC)C=C2C(=O)OC)cc1 | 165% |
| CCC(=O)Nc1c(S(=O)(=O)c2ccccc2)c2nc3ccccc3nc2n1C(C)c1ccccc1 (stereo not given) | 89.9% |
| CCCCCCc1cc2cc(-c3nnc(-c4ccccc4OC)o3)c(=O)oc2cc1O | 73.3% |
| C=CCn1c(=N)c(C(=O)OC)cc2c(=O)n3cccc(C)c3nc21 | 72.9% |
| CCCS(=O)(=O)c1c(S(=O)(=O)CCC)c2cc(-c3ccncc3)ccn2c1C(=O)OC | 99.9% |
| CCC(=O)Oc1ccc2c(c1)O/C(=C\c1ccco1)C2=O | 66.8% |
| CCOC(=O)c1c(/N=C/c2cc(C)ccc2O)sc2c1CCN(C)C2 | 69.1% |
| N#CC1=C(N)Oc2cc(N)ccc2C1c1ccc(F)cc1 (stereo not given) | 98.9% |
| Cc1ccc(C(=O)CSc2ncnc3ccccc23)o1 | 103% |
| Cc1ccc(NC(=S)C2=C(O)c3sccc3N(C)S2(=O)=O)cc1 | 112% |
| O=C(O)C(=O)/C(=C\c1ccccc1)c1ccc2ccccc2n1 | 50.7% |
| Cc1cccn2c(=O)c(/C=C(\C#N)C(N)=O)c(N3CCN(Cc4ccc5c(c4)OCO5)CC3)nc12 | 181% |
| CN1/C(=C\C(=O)c2ccco2)C(C)(C)c2ccccc21 | 84.3% |
| C/C(O)=c1/ccc2cccc3nc(C)nc1c23 | 12.9% |
| N=c1c(C(=O)NCC2CCCO2)cc2c(=O)n3ccccc3nc2n1Cc1cccnc1 (stereo not given) | 72.9% |
| CCN(CC)c1ccc2c(C)c(CO)c(=O)oc2c1 | 70.6% |
| CCOCCCNC(=S)NCCCNc1nc2ccc(C)cc2cc1C#N | 163% |
| COc1cc(/C=C(\C#N)C(=O)NCc2cccs2)ccc1O | 52.4% |
| COCCOC(=O)C(C#N)c1nc2ccccc2nc1N1CCN(Cc2ccccc2)CC1 (stereo not given) | 99.7% |
| CCCn1c(=NC(=O)c2c(-c3c(F)cccc3Cl)noc2C)c(C(=O)OCC)cc2c(=O)n3ccccc3nc21 | 89.5% |
